Reference: PubChem BioAssay AID504332 (National Center for Advancing Translational Sciences (NCATS), 2011)
Screen size: about 350,000 compounds; about 31,000 (8.9%) were called active. The shares of active, inactive and inconclusive entries below differ from those in the screen. Calls come from the whole dose curve; as a rule, active = well fitted inhibition curve with a large enough effect; inconclusive = small, poorly fitted or top-dose-only effect; inactive = no such curve, though single readings can be large or run the other way. Where the call is inconclusive, the potency comes from a doubtful curve fit.

What follows are compounds tested against Histone-lysine N-methyltransferase EHMT2 (Homo sapiens) (UniProt Q96KQ7) (assay: qHTS Assay for Inhibitors of Histone Lysine Methyltransferase G9a). Settings: G9a H3K9 monomethylation, AlphaScreen, 2 h; activity, negative = inhibition: at 59 µM (top of the series) unless noted.
Procedure, shortened: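 G9a (20 nM) was preincubated 15 min with compound, then reacted 2 h at room temperature with 500 nM biotin-H3K9 peptide and 20 µM SAM. Monomethyl-H3K9 detected by AlphaScreen using anti-H3K9me1 antibody.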
% is set by controls: 0 for no effect and ±100 for the full control effect; potency is the fitted concentration of half-maximal effect; tags give direction and shape of the fitted curve.
Note: nearly all actives have a fitted effect of over 75% in size.

Sequence of UniProt Q96KQ7 (Q96KQ7 whole entry, looked up): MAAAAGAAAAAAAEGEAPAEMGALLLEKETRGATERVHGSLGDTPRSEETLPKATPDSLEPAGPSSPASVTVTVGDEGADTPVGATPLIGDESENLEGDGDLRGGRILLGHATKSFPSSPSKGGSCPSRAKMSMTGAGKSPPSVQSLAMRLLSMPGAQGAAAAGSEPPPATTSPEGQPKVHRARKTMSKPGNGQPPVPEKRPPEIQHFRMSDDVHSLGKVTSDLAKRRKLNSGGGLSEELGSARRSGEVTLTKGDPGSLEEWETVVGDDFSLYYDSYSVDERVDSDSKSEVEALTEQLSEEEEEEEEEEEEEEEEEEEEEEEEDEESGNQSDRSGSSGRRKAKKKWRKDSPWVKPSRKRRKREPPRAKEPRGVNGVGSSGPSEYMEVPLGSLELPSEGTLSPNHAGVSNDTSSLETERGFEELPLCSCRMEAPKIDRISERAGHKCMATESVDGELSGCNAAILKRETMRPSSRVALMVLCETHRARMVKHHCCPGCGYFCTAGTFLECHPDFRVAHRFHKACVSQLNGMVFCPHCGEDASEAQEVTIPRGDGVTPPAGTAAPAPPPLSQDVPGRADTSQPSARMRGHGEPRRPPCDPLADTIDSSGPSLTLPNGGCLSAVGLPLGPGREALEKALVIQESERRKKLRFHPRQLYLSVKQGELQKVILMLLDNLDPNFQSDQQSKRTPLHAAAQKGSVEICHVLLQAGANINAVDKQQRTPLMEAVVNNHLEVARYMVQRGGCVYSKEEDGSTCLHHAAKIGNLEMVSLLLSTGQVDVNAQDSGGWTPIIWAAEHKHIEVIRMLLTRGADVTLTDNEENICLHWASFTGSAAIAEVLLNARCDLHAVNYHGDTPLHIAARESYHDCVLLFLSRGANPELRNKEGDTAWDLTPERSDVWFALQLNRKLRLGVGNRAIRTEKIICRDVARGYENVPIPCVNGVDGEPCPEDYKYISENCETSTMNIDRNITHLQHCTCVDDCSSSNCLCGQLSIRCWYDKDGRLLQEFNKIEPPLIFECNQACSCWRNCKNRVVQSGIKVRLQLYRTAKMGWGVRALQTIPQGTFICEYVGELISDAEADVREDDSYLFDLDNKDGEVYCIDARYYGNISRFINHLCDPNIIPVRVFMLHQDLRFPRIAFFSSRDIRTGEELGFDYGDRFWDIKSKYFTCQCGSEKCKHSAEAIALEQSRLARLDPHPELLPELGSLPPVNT

Row | Structure (SMILES) | Potency | activity, negative = inhibition
1 | COc1cc(NC(=O)CSc2nccc(C)n2)c(C(=O)O)cc1OC | inconclusive: 50.1 µM [inhibitor, partial curve] | 
2 | Cn1c(=O)c2c(ncn2Cc2nnc(N)s2)n(C)c1=O | inconclusive: 44.7 µM [inhibitor, partial curve, poor fit] | 
3 | COC(=O)C(Sc1nc(C)cc(C)c1C#N)c1ccccc1 (stereo not drawn) | inactive | 
4 | O=C(c1cccs1)c1coc2ccc(O)c(CN(CCO)CCO)c12 | active: 39.8 µM | 
5 | NC(=S)NCc1cccnc1 | inactive | 
6 | CC1=NNC(=O)/C1=C\c1cn(-c2ccccc2)nc1-c1ccccc1 |  | inconclusive: -102% [inhibitor]
7 | CC(=O)c1ccc(NC(=O)/C(=C\c2cccs2)NC(=O)c2ccco2)cc1 | inconclusive: 89.1 µM [inhibitor, single point] | 
8 | CC1(C)CC(=O)C2=C(C1)NC(SCC(=O)Nc1ccccc1)=C(C#N)C21CCCCC1 | inconclusive: 8.91 µM [inhibitor, single point] | 
9 | CCOc1ccc(CN2CCN(S(=O)(=O)c3ccc(NC(C)=O)cc3)CC2)cc1 | active: 22.4 µM | 
10 | CCC(=O)Nc1sc2c(c1C(=O)Nc1ccccc1C)CCC(C)C2 (stereo not drawn) | inconclusive: 31.6 µM [inhibitor, single point] | 
11 | CCN(C(=O)COC(=O)CCCN1C(=O)c2cccc3cccc(c23)C1=O)C1CCS(=O)(=O)C1 (stereo not drawn) | inactive | 
12 | COc1ccc(S(=O)(=O)NCCOc2cccc3cccnc23)cc1OC | inactive | 
13 | COc1cccc(C2/C(=C(\O)c3ccc(OC)c(OC)c3)C(=O)C(=O)N2c2cc(C)on2)c1 (stereo not drawn) | inconclusive: 89.1 µM [inhibitor, single point] | 
14 | Cc1ccc(S(=O)(=O)N(C)CC(=O)OCC(=O)NC(c2ccccc2)c2ccccc2)cc1 | inconclusive: 89.1 µM [inhibitor, partial curve, poor fit] | 
15 | Cc1ccc(CN2CCNC(=O)C2CC(=O)NC2CCCCCC2)cc1 (stereo not drawn) | active: 56.2 µM | 
16 | COC(=O)c1ccccc1NC(=O)c1noc2c1CSc1ccccc1-2 | inconclusive: 1 µM [inhibitor, full curve] | 
17 | CN(C)CC(C)(C)CNS(=O)(=O)c1cccc(Cl)c1Cl | active: 8.91 µM | 
18 | COc1ccc2nc(NC(=O)c3ccc(S(=O)(=O)N4CCC(C)CC4)cc3)sc2c1 | inactive | 
19 | COc1cccc(NS(=O)(=O)Cc2ccccc2)c1 | inconclusive: 20 µM [inhibitor, single point] | 
20 | O=C(O)C12CC3CC(C1)CC(n1ncc(NCc4ccco4)c(Cl)c1=O)(C3)C2 | active: 79.4 µM | 
21 | CC(=O)Nc1ccc(NC(=O)CCC(=O)Oc2ccc(C)cc2)cc1 | inactive | 
22 | O=C(Nc1ccnc(-c2ccncc2)n1)C1CC1 | inactive | 
23 | COc1ccc(-c2nc(CSCC(=O)NCCc3ccc(C)cc3)c(C)o2)cc1OC | inconclusive: 28.2 µM [inhibitor, partial curve, poor fit] | 
24 | CCOC(=O)CCCn1c(C)nc(=O)c(-c2ccccc2)c1C | inconclusive: 56.2 µM [inhibitor, partial curve] | 
25 | O=C(/C=C/c1ccco1)Nc1ccc(S(=O)(=O)N2CCOCC2)cc1 | inconclusive: 44.7 µM [inhibitor, partial curve, poor fit] | 

Row | Structure (SMILES) | Potency | activity, negative = inhibition
26 | COc1ccc(/C(O)=C2/C(=O)C(=O)N(Cc3cccnc3)C2c2ccccn2)cc1 (stereo not drawn) | inconclusive: 39.8 µM [inhibitor, single point] | 
27 | Cc1nn(-c2ccccc2)c(C)c1NC(=O)COC(=O)c1ccc(Cl)c(N)c1 | inconclusive: 50.1 µM [inhibitor, partial curve, poor fit] | 
28 | COc1cccc(C(=O)NCCS(=O)(=O)NCc2ccco2)c1 | active: 20 µM | 
29 | COc1ccc(NC(=O)COC(=O)[C@@H](NC(=O)c2c(F)cccc2F)C(C)C)cc1 | inactive | 
30 | O=S(=O)(Nc1cccc(-c2cn3c(n2)SCC3)c1)c1ccccc1F | inconclusive: 63.1 µM [inhibitor, single point] | 
31 | O=S(=O)(c1ccc(-n2cnnn2)cc1)N1CCNCC1 | inconclusive: 89.1 µM [inhibitor, single point] | 
32 | O=C(COC(=O)c1cc(Cl)ccc1[N+](=O)[O-])NCc1ccc(Cl)cc1Cl | inconclusive: 39.8 µM [inhibitor, single point] | 
33 | CCN(CC)CCNC(=O)c1cn(C)c2ccc(S(=O)(=O)N(C)C3CCCCC3)cc2c1=O | inconclusive: 89.1 µM [inhibitor, single point] | 
34 | CCOC(=O)Cn1cc2c(c1-c1ccc(Cl)cc1)c(=O)n(C)c(=O)n2C | inconclusive: 35.5 µM [inhibitor, single point] | 
35 | CCc1noc2nc(C)n(CC(=O)O)c(=O)c12 | inactive | 
36 | O=C(CSc1ccc(Br)c2cccc(Cl)c12)Nc1ccc(S(=O)(=O)Nc2nccs2)cc1 | active: 31.6 µM | 
37 | O=C1ON=C(c2ccccc2)/C1=C/c1cccnc1 | active: 44.7 µM | 
38 | CCNC(=O)Nc1nc2ccccc2s1 | inactive | 
39 | COC(=O)c1ccc(S(=O)(=O)N2CCC(c3nc4ccccc4o3)CC2)cc1 | inconclusive: 89.1 µM [inhibitor, single point] | 
40 | CCCCN(Cc1ccccc1)S(=O)(=O)c1ccc2c(c1)CC(C)N2C(=O)CC (stereo not drawn) | inactive | 
41 | CC(=O)Nc1nc(C)c(C(C)(C)C)s1 | inactive | 
42 | Cc1ccc(NC(=O)CSc2nnc(Cc3cccn3C)n2-c2ccc(F)cc2)c(C)c1 | active: 28.2 µM | 
43 | COc1ccc(-c2nc3n(n2)C(c2ccccc2F)C(C(=O)Nc2cccnc2)=C(C)N3)cc1OC (stereo not drawn) | inactive | 
44 | Cc1onc(-c2ccccc2Cl)c1C(=O)Nc1cnn(Cc2ccccc2)c1 | inconclusive: 44.7 µM [inhibitor, partial curve, poor fit] | 
45 | Cc1ccc(OCC(=O)c2cc(C)n(-c3cc(C)on3)c2C)c([N+](=O)[O-])n1 | active: 50.1 µM | 
46 | c1ccc(C(c2cccs2)c2c[nH]c3ccccc23)cc1 (stereo not drawn) | inconclusive: 22.4 µM [inhibitor, partial curve, poor fit] | 
47 | O=C(CSc1nc2scc(-c3ccccc3)c2c(=O)[nH]1)N1CCCCC1 | active: 50.1 µM | 
48 | COc1ccccc1-c1cc(C(F)(F)F)nc(S(=O)(=O)CCCC(=O)Nc2cccnc2Cl)n1 | inconclusive: 70.8 µM [inhibitor, partial curve, poor fit] | 
49 | Cc1ccccc1C(=O)/C=C1\NC(=O)CS1 | inconclusive: 25.1 µM [inhibitor, single point] | 
50 | c1ccc(-c2ccccc2OCCN2CCCC2)cc1 | active: 7.94 µM | 

Row | Structure (SMILES) | Potency | activity, negative = inhibition
51 | CC(Oc1cccc(Cl)c1)C(=O)Nc1ccc(S(=O)(=O)N(C)C2CCN(C)CC2)cc1 (stereo not drawn) |  | inactive: -1.12% [at 12.7 µM]
52 | Cc1cccc(C)c1NC(=O)CCCSc1nc2ccccc2s1 | inconclusive: 39.8 µM [inhibitor, single point] | 
53 | CC[C@H](C)/C=C(C)/C=C/C1=CC2=CC(=O)[C@]3(C)OC(=O)[C@@H](C(C)=O)[C@@H]3C2=CO1 |  | inconclusive: -91.4% [inhibitor]
54 | CCOc1ccccc1N(C(=O)Cn1nnnc1-c1ccc(C)o1)C(CC)C(=O)NC(C)(C)C (stereo not drawn) | inconclusive: 31.6 µM [inhibitor, single point] | 
55 | COc1ccc(OC)c(NC(=O)COC(=O)/C=C/c2c(C)nn(C3CCS(=O)(=O)C3)c2Cl)c1 (stereo not drawn) | inconclusive: 100 µM [inhibitor, partial curve, poor fit] | 
56 | Cc1onc(-c2cccc(Cl)c2Cl)c1C(=O)O/N=C(\N)c1ccc([N+](=O)[O-])o1 | active: 35.5 µM | 
57 | C[N+](C)(C)CCCN(Cc1ccc2c(c1)OCO2)C(=O)NC1CCCCC1 | active: 50.1 µM | 
58 | O=C(OCC(=O)N1CCc2ccccc21)c1c2c(nc3ccccc13)CCCC2 | inconclusive: 56.2 µM [inhibitor, partial curve, poor fit] | 
59 | COCCNc1nnc(SCC(=O)NNC(=O)c2ccccc2)s1 | inconclusive: 22.4 µM [inhibitor, partial curve, poor fit] | 
60 | NCCCC[C@H](NC(=O)C1CCNCC1)c1nnc([C@@H](N)Cc2ccc(O)cc2)o1 |  | inconclusive: -59.8% [inhibitor]
61 | Cc1ccc(NC(=O)CSc2nc(=O)n(Cc3ccncc3)c3c2CCC3)c(C)c1 |  | inactive: 14.3% [at 0.501 µM]
62 | CN1CCN(c2ncnc3c2cnn3-c2ccc(Cl)cc2)CC1 | inconclusive: 89.1 µM [inhibitor, single point] | 
63 | COc1cc(CNCc2ccc(Br)cc2)cc(OC)c1 | inconclusive: 44.7 µM [inhibitor, partial curve, poor fit] | 
64 | Cc1sc(NC(=O)c2cccs2)nc1-c1ccccc1 | inactive | 
65 | COc1ccc(NCc2ccccc2-c2nnc(-c3ccccc3)o2)cc1Cl | inactive | 
66 | CCCCCC(=O)/C=C/C=C\CCCCCCCC(=O)O | inactive | 
67 | COc1cc2c(cc1OC)/C(=C/C(=O)c1ccccc1F)NCC2 | active: 56.2 µM | 
68 | CCCNc1c(N)n(-c2ccccc2)c(=O)[nH]c1=O | active: 35.5 µM | 
69 | CSc1ccccc1OCc1cc(C(=O)N(C)Cc2nonc2C)no1 | inactive | 
70 | S=c1[nH]nc(CCc2ccccc2)n1-c1ccc(Cl)cc1 | inconclusive: 4.47 µM [inhibitor, single point] | 
71 | CCOC(=O)c1cc2c(=O)n3cccc(C)c3nc2n(CCOC)c1=NC(C)=O | inconclusive: 50.1 µM [inhibitor, partial curve] | 
72 | Cc1nc(SCC(=O)N(CC(C)C)C2CCS(=O)(=O)C2)c(C#N)c(C)c1C (stereo not drawn) | active: 50.1 µM | 
73 | CCS(=O)(=O)Nc1cc(-c2cn3ccc(C)cc3n2)ccc1C | inactive | 
